In PubChem BioAssay AID686978 (National Center for Advancing Translational Sciences (NCATS), 2013):
“And” between values parts separate entries of the source, which are not always exact repeats. Equal entries are not always repeated. Hit rate of the full screen: of about 420,000 compounds, about 64,000 (15%) were called active. Inconclusive results, whose numbers are uncertain, are shown with a selection of clear calls. Calls come from the whole dose curve; as a rule, active = well fitted inhibition curve with a large enough effect; inconclusive = small, poorly fitted or top-dose-only effect; inactive = flat fitted curve, though single readings scatter. Potencies of inconclusive entries are left out as doubtful fits.

Test: qHTS for Inhibitors of human tyrosyl-DNA phosphodiesterase 1 (TDP1): qHTS in cells in absence of CPT; note: nearly all actives have a fitted effect of over 55% in size
Settings: DT40 Tdp1-/- hTDP1 cells, no CPT, ATP luminescence, 48 h; activity change, negative = growth inhibition: at 46.2 µM (top of the series) unless noted
In short: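 Cells were dispensed at 400 per well, compounds added by pin tool, plates incubated ≥48 hr at 37 °C, then CellTiter-Glo added for 30 min at room temperature before luminescence reading. Line: DT40 Tdp1-/- complemented with hTDP1; camptothecin omitted.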
% is set by controls: 0 for no effect and ±100 for the full control effect; potency is the fitted concentration of half-maximal effect; tags give direction and shape of the fitted curve.

Structure (SMILES) | Potency | activity change, negative = growth inhibition
O=C(CSc1n[nH]c(-c2ccncc2)n1)Nc1ccccc1C(F)(F)F | active: 10.3 µM | –
CCOC(=O)C1(C)CCCN(C(=O)c2cc(F)cc(F)c2)C1 (stereo not drawn) | inconclusive [inhibitor, single point] | –
C/C(=N/NC(=O)c1ccccn1)c1ccco1 | inconclusive [inhibitor, partial curve] | –
CC(=O)c1c(C)oc2ccc(N(C(C)=O)S(=O)(=O)c3ccc(Cl)c([N+](=O)[O-])c3)cc12 | inconclusive [inhibitor, single point] | –
CCOC(=O)c1cnc2ccccc2c1NCCc1ccc(OC)c(OC)c1 | active: 14.6 µM and active: 10.3 µM | –
Cc1ccc(CNC(=O)Cn2c(=O)cc(C(F)(F)F)c3c(C)nn(C)c32)cc1 | inactive | –
O=[N+]([O-])c1cc(-c2ccccc2)cc([N+](=O)[O-])c1O | active: 18.4 µM | –
O=C1C=CC2(C=C1)O[C@H](Cc1ccccc1)[C@@H](Cc1ccccc1)O2 | active: 0.651 µM | –
Fc1ccc(-c2nc3c(Cl)cc(C(F)(F)F)cn3c2Cc2ccccc2)cc1 | inconclusive [inhibitor, partial curve, poor fit] | –
O=C(NN1CCOCC1)c1cnn2c(C(F)F)cc(-c3ccccc3)nc12 | inconclusive [inhibitor, single point] | –
COC(=O)C1=C(c2ccccc2)c2ccccc2S(=O)(=O)N1CC(=O)Nc1ccc(F)c(F)c1 | inconclusive [inhibitor, single point] | –
Cc1c(/C=N/NC(=O)c2cccnc2)c2ccccc2n1Cc1ccccc1 | active: 7.31 µM | –
Cc1cc(Cl)c2oc(C(=O)N(C)Cc3ccon3)c(C)c2c1 | inactive | –
Cc1ccc(S(=O)(=O)NC2CC2)cc1[N+](=O)[O-] | inactive | –
C=CCn1c(O)c(N=O)c2ccccc21 | inactive | –
Cc1noc(C)c1C(=O)Nc1ccc(S(=O)(=O)N2CCCCC2)cc1 | inconclusive [inhibitor, single point] | –
Cc1cc(O)c(C(=O)/C=C/c2c(F)c(F)c(F)c(F)c2F)c(=O)o1 | inconclusive [inhibitor, single point] | –
Cc1sc2ncn(CC(=O)N3CCN(c4ccc(F)cc4)CC3)c(=O)c2c1S(=O)(=O)N1CCC(C)CC1 | inconclusive [inhibitor, single point] | –
O=C(c1noc2c1CCCC2)N1CCCCC1 | inactive | –
CCn1cc(CNC(=O)CSc2nc(-c3ccc(OC)c(OC)c3)cc(C(F)(F)F)n2)c(C)n1 | inconclusive [inhibitor, partial curve] | –
CCOc1ccc(C(=O)Nc2cccc(SC)c2)cc1 | active: 9.2 µM | –
COc1ccc(-c2sc3cc4c(cc3c2C#CC2(O)CCCCC2)OCO4)cc1 | active: 20.6 µM | –
Nc1c(C(=O)Nc2ccccc2)sc2nc3c(c(-c4ccco4)c12)CCCC3 | inconclusive [inhibitor, single point] | –
Cc1cccc(OCc2nc(-c3ccccn3)n[nH]2)c1 | active: 14.6 µM | –
COc1ccc(NC(=O)C2CCCN(S(=O)(=O)c3cccc4cccnc34)C2)cc1OC (stereo not drawn) | inactive | –

Structure (SMILES) | Potency | activity change, negative = growth inhibition
Cc1ccc(CNC(=O)C2CCN(S(=O)(=O)c3c(C)noc3/C=C/c3cccs3)CC2)cc1 | inconclusive [inhibitor, single point] | –
O=C(Nc1cccc(C(F)(F)F)c1)C1Cc2c(-c3ccco3)ccnc2O1 (stereo not drawn) | inconclusive [inhibitor, single point] | –
Cc1ccc(Nc2nc(N)c3ccccc3n2)cc1Cl | inconclusive [inhibitor, partial curve, poor fit] | –
Oc1ccc2ccccc2c1C1Nc2cccc3cccc(c23)N1 | inconclusive [inhibitor, single point] | –
Cc1cc(C)cc(Oc2ccc(C(F)(F)F)cc2C#N)c1 | inactive | –
CCN(CC)c1ccc(C(=O)NNC(=O)CCl)cc1 | inconclusive [inhibitor, single point] | –
COc1ccc(NC(=O)c2ccccc2NC(=O)CSc2ccc(C)cc2)cc1 | inconclusive [inhibitor, partial curve] | –
CC(C)c1ccc(/C=C(\NC(=O)c2ccccc2)C(=O)NCCCN2CCOCC2)cc1 | inactive | –
CCOc1ccc(NC(=O)CN(c2ccc(CC)cc2)S(=O)(=O)c2c(C)noc2C)cc1 | active: 13 µM | –
COc1ccc(C2CC(=O)c3cnc(NC(=O)c4cccc(OC)c4)nc3C2)cc1 (stereo not drawn) | inconclusive [inhibitor, single point] | –
COCCn1nnnc1SCC(=O)NCc1ccc2c(c1)OCO2 | inactive | –
CCOC(=O)C1(CCOc2ccccc2)CCN(Cc2cccc(OCCO)c2)CC1 | inconclusive [inhibitor, single point] | –
Cc1cccc(OCc2nnc(SCC(=O)N(C(C)C)C(C)C)n2Cc2ccco2)c1C | inconclusive [inhibitor, single point] | –
CSc1ccccc1OCc1cc(C(=O)N(C)Cc2ccncn2)no1 | inactive | –
O=C(CN1CCOCC1)Nc1cccc(C(=O)Nc2cccc(C(F)(F)F)c2)c1 | inconclusive [inhibitor, partial curve] | –
COc1ccccc1CNC(=O)CN(C)S(=O)(=O)c1cccc2cccnc12 | inactive | –
COc1ccc(C(=O)N2CCC3(CCN(Cc4ccncc4)CC3)CC2)cc1 | inconclusive [inhibitor, single point] | –
CC1CCN(S(=O)(=O)c2cccc(S(=O)(=O)N3CCCC3)c2)CC1 | – | inconclusive: -33.9% [inhibitor]
CSc1ncc(C(=O)NCc2cccc(F)c2)c(-c2ccccc2)n1 | inconclusive [inhibitor, single point] | –
N#Cc1ccc(OC(=O)C2CCN(C3=NS(=O)(=O)c4ccccc43)CC2)cc1 | inactive | –
O=C(O)c1cc(-c2ccc3c(c2)OCO3)nc2ccc(Cl)cc12 | inactive | –
CCCCC(CC)CNC(=O)Cn1c(=O)[nH]c2ccsc2c1=O (stereo not drawn) | inactive | –
CCN1CCN(c2ccc(N3CCN(S(=O)(=O)c4ccc(C)c([N+](=O)[O-])c4)CC3)nn2)CC1 | inconclusive [inhibitor, single point] | –
CCOC(=O)N(C)c1c(CC)nc2c(OCc3cccc(Cl)c3)cccn12 | inconclusive [inhibitor, single point] | –
CC(=O)N(c1ccc(C(C)C)cc1)C1C=CS(=O)(=O)C1 (stereo not drawn) | inactive | –

Structure (SMILES) | Potency | activity change, negative = growth inhibition
CC(C)Oc1ccc(CNC(=O)c2ccc(CN3CC(=O)N4CCCCC4C3=O)cc2)cc1 (stereo not drawn) | inactive | –
NC[C@H](Cc1ccccc1)NCCCCC1CCCCC1 | – | inconclusive: -34.3% [inhibitor]
Cc1c(NS(=O)(=O)c2cccc3nsnc23)c(=O)n(-c2ccccc2)n1C | inconclusive [inhibitor, full curve, poor fit] | –
O=C(NCc1cccc(Cl)c1)c1ccc(NC(=O)N2CC3CCCN3c3ccccc32)cc1 (stereo not drawn) | active: 13 µM | –
Oc1c(C(c2ccc(Cl)cc2Cl)N2CCN(c3ccccc3)CC2)sc2nc(-c3ccco3)nn12 (stereo not drawn) | inconclusive [inhibitor, single point] | –
COc1cccc(CN(C(=O)/C=C/c2ccc(Cl)cc2)C2CCS(=O)(=O)C2)c1 (stereo not drawn) | inconclusive [inhibitor, single point] | –
CN(c1ccc(C(=O)NCCSC(C)(C)C)cc1)S(C)(=O)=O | inconclusive [inhibitor, single point] | –
COc1ccc(NC(=O)c2ccccc2)c([N+](=O)[O-])c1 | inconclusive [inhibitor, partial curve] | –
COc1ccc(CN(Cc2ccco2)c2cnc(S(C)(=O)=O)nc2C(=O)Nc2ccc(C)c(Cl)c2)cc1 | inactive | –
C=CCc1ccc(OCC(O)CN2CCN(Cc3ccccc3)CC2)c(OC)c1 (stereo not drawn) | inactive | –
O=C(Nc1ccc2nc(SCC(=O)N3CCc4ccccc43)sc2c1)c1ccc(F)cc1 | active: 8.2 µM | –
CC(=O)c1cccc(NC(=O)c2ccccc2N(Cc2ccccc2)S(C)(=O)=O)c1 | inactive | –
CC(=O)N1CCN(C(=O)c2cc(S(=O)(=O)N(C)c3ccc(F)cc3)ccc2Cl)CC1 | inconclusive [inhibitor, single point] | –
COc1cc(O)c(C(CCN2CCCCC2)c2ccc3c(c2)OCO3)c(OC)c1 (stereo not drawn) | inconclusive [inhibitor, partial curve, poor fit] | –
Cc1ccccc1NC(=O)c1ccco1 | inactive | –
CNC(=S)N1N=C(c2ccc(Br)cc2)CC1c1ccc(OC)cc1 (stereo not drawn) | active: 9.2 µM | –
COc1ccccc1NC(=O)c1nn(-c2ccc(OC(F)(F)F)cc2)ccc1=O | inconclusive [inhibitor, single point] | –
CCc1ccc(NC(=S)N(CCOC)C2CCN(C(C)=O)CC2)cc1 | inactive | –
CCCCN(C)Cc1c(O)ccc2c(=O)c(-c3ccccc3OC)coc12 | inactive | –
CCOc1ccc(N2C(=O)S/C(=C\c3ccc(O)c(OC)c3)C2=O)cc1 | inactive | –
COc1ccc(C(c2nnnn2Cc2ccc(F)cc2)N2CCN(c3ccccc3)CC2)cc1 (stereo not drawn) | inconclusive [inhibitor, single point] | –
CCOC(=O)C1CCN(C(=O)c2ccc(NS(=O)(=O)c3ccc(F)cc3C)cc2)CC1 | inconclusive [inhibitor, partial curve] | –
Cc1cnc(C(=O)N2CCCC(N3CCN(c4cccc(C(F)(F)F)c4)CC3)C2)cn1 (stereo not drawn) | inconclusive [inhibitor, partial curve] | –
